The list shows a part of the results. Single values of this set are uncertain. Values with irradiation are relative to irradiated vehicle.
Columns and labels:
A549-Dual [1] = assay: NF-kB reporter (SEAP) activity, viability-corrected, relative to vehicle (fold change vs vehicle); higher = more activation of STING-IRF / NF-kB immune response reporter
A549-Dual [2] = assay: ISRE reporter (Lucia luciferase) activity, viability-corrected, relative to vehicle (fold change vs vehicle); higher = more activation of STING-IRF / NF-kB immune response reporter
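Throughout, for NF-kB reporter (SEAP) activity, viability-corrected, relative to vehicle: viability correction based on the alamar blue assay, with concentrations leaving 10% survival or less dropped.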

Row | Structure (SMILES) | NF-kB reporter (A549-Dual [1]; 0.1 µM, irradiation: 8 Gy/4 fr) | NF-kB reporter (A549-Dual [1]; 0.1 µM, irradiation: none) | NF-kB reporter (A549-Dual [1]; 0.3 µM, irradiation: 8 Gy/4 fr) | NF-kB reporter (A549-Dual [1]; 0.3 µM, irradiation: none) | NF-kB reporter (A549-Dual [1]; 1 µM, irradiation: 8 Gy/4 fr) | NF-kB reporter (A549-Dual [1]; 1 µM, irradiation: none) | NF-kB reporter (A549-Dual [1]; 3 µM, irradiation: 8 Gy/4 fr) | NF-kB reporter (A549-Dual [1]; 3 µM, irradiation: none) | NF-kB reporter (A549-Dual [1]; 10 µM, irradiation: 8 Gy/4 fr) | NF-kB reporter (A549-Dual [1]; 10 µM, irradiation: none) | ISRE reporter (A549-Dual [2]; 0.1 µM, irradiation: 8 Gy/4 fr) | ISRE reporter (A549-Dual [2]; 0.1 µM, irradiation: none) | ISRE reporter (A549-Dual [2]; 0.3 µM, irradiation: 8 Gy/4 fr) | ISRE reporter (A549-Dual [2]; 0.3 µM, irradiation: none) | ISRE reporter (A549-Dual [2]; 1 µM, irradiation: 8 Gy/4 fr) | ISRE reporter (A549-Dual [2]; 1 µM, irradiation: none) | ISRE reporter (A549-Dual [2]; 3 µM, irradiation: 8 Gy/4 fr) | ISRE reporter (A549-Dual [2]; 3 µM, irradiation: none) | ISRE reporter (A549-Dual [2]; 10 µM, irradiation: 8 Gy/4 fr) | ISRE reporter (A549-Dual [2]; 10 µM, irradiation: none)
1 | O=C([O-])CC(O)(CC(=O)[O-])C(=O)[O-].O=C([O-])CC(O)(CC(=O)[O-])C(=O)[O-].[BiH6+3].[K+].[K+].[K+] [Gastrodenol] | 1.68 | 1.47 | 1.64 | 1.29 | 1.27 | 1.39 | 1.57 | 1.31 | 1.72 | 1.2 | 1.22 | 1.1 | 1.18 | 0.913 | 0.974 | 1.27 | 1.22 | 1.13 | 1.29 | 0.94
2 | COc1c(C)c2c(c(O)c1C/C=C(\C)CCC(=O)OCCN1CCOCC1)C(=O)OC2 [Mycophenolate Mofetil] | 1.02 | 1.1 | 1.12 | 1.25 | 1.07 | 1.14 | 1.27 | 1.35 | 0.622 | 1.27 | 1.07 | 0.971 | 0.929 | 0.549 | 0.123 | 0.432 | 0.237 | 0.224 | 0.0537 | 0.284
3 | Cc1c(Cl)cccc1Nc1ccccc1C(=O)O [Tolfenamic Acid] | 0.909 | 1.36 | 0.888 | 1.44 | 1.27 | 1.13 | 1.47 | 1.11 | 1.07 | 0.891 | 1.07 | 0.95 | 0.964 | 1.22 | 1.02 | 1.01 | 0.913 | 1.08 | 1.19 | 1.17
4 | CCCC(=O)OC1(C(=O)CCl)C(C)CC2C3CCC4=CC(=O)C=CC4(C)C3(F)C(=O)CC21C (stereo not given) [clobetasone butyrate] | 0.702 | 1.18 | 1.22 | 0.983 | 1.46 | 0.699 | 1.36 | 0.715 | 0.499 | 0.552 | 0.0594 | 0.304 | 0.0632 | 0.24 | 0.0592 | 0.146 | 0.0567 | 0.209 | 0.0512 | 0.227
5 | COc1cc(C(=O)NS(=O)(=O)c2ccccc2C)ccc1Cc1cn(C)c2ccc(NC(=O)OC3CCCC3)cc12 [Zafirlukast] | 1.02 | 1.64 | 1.13 | 1.72 | 1.49 | 1.27 | 1.58 | 1.18 | 1.55 | 1.04 | 1.23 | 1.21 | 1.1 | 1.12 | 0.986 | 1.21 | 1.01 | 1.37 | 1.02 | 1.2
6 | NC(CO)(CO)CO.O=C(c1ccccc1)c1ccc2n1CCC2C(=O)O (stereo not given) [Ketorolac tromethamine salt] | 1.2 | 1.4 | 1.39 | 1.18 | 1.43 | 1.18 | 1.51 | 1.04 | 1.26 | 1.1 | 1.15 | 1.21 | 1.22 | 0.902 | 0.98 | 0.885 | 0.998 | 1.07 | 0.953 | 0.837
7 | CC(=O)OCC(=O)C1(O)C(C)CC2C3CCC4=CC(=O)C=CC4(C)C3(F)C(O)CC21C (stereo not given) [Dexamethasone Acetate] | 0.629 | 0.871 | 0.653 | 1.07 | 1.04 | 0.74 | 0.872 | 0.843 | 0.523 | 0.726 | 0.0547 | 0.221 | 0.0462 | 0.251 | 0.0445 | 0.181 | 0.048 | 0.236 | 0.0551 | 0.338
8 | CN1CCCC1CCOC(C)(c1ccccc1)c1ccc(Cl)cc1.O=C(O)/C=C/C(=O)O (stereo not given) [Clemastine Fumarate] | 1.14 | 1.23 | 1.35 | 1.22 | 1.25 | 1.17 | 1.09 | 1.06 | 1.01 | 1.28 | 1.2 | 1.42 | 1.29 | 1.22 | 1.33 | 1.41 | 1.29 | 1.81 | 1.12 | 2.01
9 | CC(C)(C)c1nc(-c2cccc(NS(=O)(=O)c3c(F)cccc3F)c2F)c(-c2ccnc(N)n2)s1 | 0.621 | 0.788 | 0.499 | 0.726 | 0.548 | 1.23 | 0.642 | 1.2 | 0.57 | 1.06 | 0.429 | 0.95 | 0.169 | 0.456 | 0.177 | 0.432 | 0.214 | 0.389 | 0.195 | 0.421
10 | Cl.N=C1CCCN1Cc1[nH]c(=O)[nH]c(=O)c1Cl.O=c1[nH]c(=O)n(C2CC(O)C(CO)O2)cc1C(F)(F)F.O=c1[nH]c(=O)n(C2CC(O)C(CO)O2)cc1C(F)(F)F (stereo not given) | 1.04 | 1.03 | 0.772 | 1.24 | 0.822 | 1.37 | 0.964 | 1.58 | 0.964 | 1.34 | 0.906 | 1.92 | 0.561 | 2.47 | 0.64 | 3.11 | 0.557 | 2.08 | 0.54 | 2.27
11 | COc1cc(C2Oc3ccc(C4Oc5cc(O)cc(O)c5C(=O)C4O)cc3OC2CO)ccc1O (stereo not given) [Silymarin] | 0.915 | 1.68 | 1.05 | 1.79 | 1.63 | 1.34 | 1.69 | 1.34 | 1.28 | 1 | 1.11 | 1.42 | 1.03 | 1.23 | 1.05 | 1.2 | 1.03 | 1.22 | 1.12 | 0.882
12 | CCOC(=O)c1ccc(C#Cc2ccc3c(c2)C(C)(C)CCS3)nc1 [Tazarotene] | 0.922 | 0.816 | 0.792 | 0.906 | 1.01 | 0.761 | 0.75 | 0.725 | 0.706 | 0.995 | 1 | 1.09 | 0.884 | 1.02 | 0.892 | 1.23 | 0.892 | 1.18 | 0.978 | 1.22
13 | CCOC(=O)OC1(C(=O)OCCl)CCC2C3CCC4=CC(=O)C=CC4(C)C3C(O)CC21C (stereo not given) [Loteprednol etabonate] | 0.774 | 1.23 | 0.723 | 1.18 | 1.47 | 1.08 | 1.41 | 0.941 | 0.738 | 0.725 | 0.113 | 0.326 | 0.0993 | 0.429 | 0.0949 | 0.277 | 0.0779 | 0.289 | 0.0754 | 0.203
14 | Nc1nc(F)nc2c1ncn2C1OC(CO)C(O)C1O (stereo not given) [Fludarabine] | 0.866 | 1.11 | 0.91 | 1.07 | 0.794 | 1.02 | 0.886 | 0.771 | 0.941 | 0.882 | 0.906 | 0.904 | 1.09 | 0.905 | 0.83 | 1.01 | 0.921 | 0.747 | 0.868 | 0.949
15 | O=C(/C=C/C=C/c1ccc2c(c1)OCO2)N1CCCCC1 [Piperine] | 1.19 | 1.27 | 1.13 | 1.29 | 1.09 | 1.95 | 1.03 | 1.35 | 0.92 | 1.27 | 0.98 | 1.2 | 1.02 | 0.922 | 0.963 | 1.1 | 0.79 | 0.678 | 0.802 | 0.926
16 | NC(=O)c1ncn(C2OC(CO)C(O)C2O)c1O (stereo not given) [Mizoribine] | 1.28 | 1.23 | 1.3 | 1.1 | 1.29 | 0.922 | 1.06 | 1.02 | 0.794 | 0.906 | 1.18 | 1.36 | 1.21 | 1.04 | 1.19 | 0.994 | 1.14 | 0.997 | 0.683 | 0.82
17 | CN(C)CCOC(c1ccc(Cl)cc1)c1ccccn1.O=C(O)/C=C\C(=O)O (stereo not given) [CarbinoxaMine Maleate] | 1.07 | 0.832 | 0.83 | 0.655 | 1.08 | 0.813 | 1.04 | 0.852 | 0.882 | 0.936 | 0.91 | 0.647 | 0.838 | 0.605 | 0.677 | 0.652 | 0.74 | 0.774 | 0.898 | 0.899
18 | CC12CCC(=O)C=C1CCC1C2C(O)CC2(C)C1CCC2(O)C(=O)CO (stereo not given) [Hydrocortisone] | 0.63 | 1.31 | 1.02 | 1.89 | 1.32 | 1.15 | 1.31 | 0.932 | 1.01 | 0.84 | 0.218 | 0.501 | 0.199 | 0.716 | 0.0755 | 0.311 | 0.0694 | 0.425 | 0.071 | 0.309
19 | CC12C=CC(=O)C=C1CCC1C2C(=O)CC2(C)C1CCC2(O)C(=O)CO (stereo not given) [Prednisone] | 0.924 | 1.15 | 1.1 | 1.1 | 1.06 | 1.06 | 1.3 | 1.02 | 0.663 | 0.984 | 0.877 | 0.963 | 0.86 | 0.957 | 0.82 | 0.846 | 0.786 | 0.708 | 0.483 | 0.659
20 | COc1cc(C2c3cc4c(cc3C(OC3OC5COC(c6cccs6)OC5C(O)C3O)C3COC(=O)C23)OCO4)cc(OC)c1O (stereo not given) [Teniposide] | 0.671 | 1.34 | 0.764 | 1.36 | 0.684 | 1.57 | 0.903 | 1.58 | 1.08 | 1.68 | 0.402 | 2.51 | 0.467 | 2.6 | 0.421 | 3.11 | 0.317 | 1.8 | 0.406 | 1.86
21 | O=C(c1ccc(OCCN2CCCCC2)cc1)c1c(-c2ccc(O)cc2)sc2cc(O)ccc12 [Raloxifene] | 0.912 | 0.996 | 0.996 | 0.966 | 0.951 | 1.38 | 0.945 | 1.18 | 0.9 | 0.955 | 1.03 | 1.1 | 1.26 | 0.953 | 1.08 | 1.03 | 1.13 | 0.749 | 0.982 | 0.981
22 | O=C(O)CCc1nc(-c2ccccc2)c(-c2ccccc2)o1 [Oxaprozin] | 1.04 | 1.14 | 1.28 | 0.954 | 1.02 | 1.14 | 1.11 | 1.02 | 0.988 | 1.15 | 1.01 | 0.823 | 0.965 | 0.788 | 0.771 | 0.727 | 0.806 | 1.01 | 0.921 | 0.886
23 | O=c1c(O)c(-c2ccc(O)c(O)c2)oc2cc(O)cc(O)c12 [Quercetin] | 1.24 | 2.46 | 1.51 | 2.48 | 2.22 | 1.49 | 2.26 | 1.57 | 1.53 | 1.34 | 1.3 | 1.89 | 1.23 | 1.79 | 1.52 | 1.2 | 1.18 | 0.931 | 0.629 | 0.879
24 | COc1cc2ncnc(Nc3ccc(F)c(Cl)c3)c2cc1OCCCN1CCOCC1.Cl [Gefitinib hydrochloride] | 1.13 | 1.37 | 0.974 | 1.16 | 0.963 | 1.54 | 0.966 | 1.22 | 0.913 | 1.14 | 1.06 | 1.42 | 1.21 | 1.07 | 1.09 | 1.07 | 1.14 | 1.03 | 1.05 | 1.36

— the supplement of paper PMC9174493
